Reference: article PMC2661965
No constants are given. Whether binding was seen depends on the method and setting. For some assays here: In cells and extracts the contact can be indirect. Some results given as binding are weak or reduced against the parent protein; the word gives no strength. For some assays here: Sequences can lack the tags named with a protein.

B1: Gal4 activation domain fused to p65 CT2 (aa 431–549) (domain or fragment, UniProt Q04207 431-549)
chain: EGTLSEALLHLQFDADEDLGALLGNSTDPGVFTDLASVDNSEFQQLLNQGVSMSHSTAEPMLMEYPEAITRLVTGSQRPPDPAPTPLGTSGLPNGLSGDEDFSSIADMDFSALLSQISS
B2: p65-V1, Q04207 1-549 (protein)
chain: MDDLFPLIFPSEPAQASGPYVEIIEQPKQRGMRFRYKCEGRSAGSIPGERSTDTTKTHPTIKINGYTGPGTVRISLVTKDPPHRPHPHELVGKDCRDGYYEADLCPDRSIHSFQNLGIQCVKKRDLEQAISQRIQTNNNPFHVPIEEQRGDYDLNAVRLCFQVTVRDPAGRPLLLTPVLSHPIFDNRAPNTAELKICRVNRNSGSCLGGDEIFLLCDKVQKEDIEVYFTGPGWEARGSFSQADVHRQVAIVFRTPPYADPSLQAPVRVSMQLRRPSDRELSEPMEFQYLPDTDDRHRIEEKRKRTYETFKSIMKKSPFNGPTEPRPPTRRIAVPTRNSTSVPKPAPQPYTFPASLSTINFDEFSPMLLPSGQISNQALALAPSSAPVLAQTMVPSSAMVPLAQPPAPAPVLTPGPPQSLSAPVPKSTQAGEGTLSEALLHLQFDADEDLGALLGNSTDPGVFTDLASVDNSEFQQLLNQGVSMSHSTAEPMLMEYPEAITRLVTGSQRPPDPAPTPLGTSGLPNGLSGDEDFSSIADMDFSALLSQISS
B3: Gal4 activation domain fused to p65 CT1 (aa 306–549) (domain or fragment, UniProt Q04207 306-549)
chain: YETFKSIMKKSPFNGPTEPRPPTRRIAVPTRNSTSVPKPAPQPYTFPASLSTINFDEFSPMLLPSGQISNQALALAPSSAPVLAQTMVPSSAMVPLAQPPAPAPVLTPGPPQSLSAPVPKSTQAGEGTLSEALLHLQFDADEDLGALLGNSTDPGVFTDLASVDNSEFQQLLNQGVSMSHSTAEPMLMEYPEAITRLVTGSQRPPDPAPTPLGTSGLPNGLSGDEDFSSIADMDFSALLSQISS
B4: HA-Trap-80 (protein, UniProt Q8VCD5 1-649)
chain: MSGVRAVRISIESACEKQVQEVGLDGTETYLQPLSMSQNLARLAQRIDFSQGSGSEEEEAAGPDGDAPDWGGAGADQDDEEGLVKFQPSLWPWDSVRNNLRSALTEMCVLYDVLSIVRDKKFMTLDPVSQDALPPKQSPQTLQLISKKKSLAGAAQILLKGAERLTKSVAENQENKLQRDFNSELLRLRQHWKLRKVGDKILGDLSYRSAGSLFPHHGTFEVIKNTDIDLDKKIPEDYCPLDVQIPSDLEGSAYIKVSIQKQAPDIGDLGTVNLFKRPLPKSKPGSPHWQTKLEAAQNVLLCKEIFAQLSREAVQIKSQIPHIVVKNQIISQPFPSLQLSISLCHSSDDKKSQKCAAEKPGQEDHLYVLEHNLHLLIREFHKQTLSSIVMPHPASAPFGHKRMRLSGPQAFDKNEINSIQSTEGLLEKIIKQAKHIFLRSRTAATIDSLASRIEDPQIQAHWSNINDVYESSVKVLITSQGYEQICKSIQLQLNIGVEQVRVVHRDGRVIMLSHQEQELQDFLLSQMSQHQVHAVQQLAKVMGWQVLSFSNHVGLGPIESIGNASAITVASPSGDYAISVRNGPESGSKIMVQFPRNQCKDLPKSDVLQDSKWSHLRGPFKEVQWNKMEGRNFVYKMELLMSALSPCLL

How the values were obtained:
p65-V2 (mouse) = p65-V2 (mouse) (UniProt Q04207); experiment: split reporter; BiFC with Venus fragments V1 and V2 in co-transfected HEK-293 cells; fluorescence intensity by flow cytometry, as percent of p65-V1 with V2-Trap-80
V2-Trap-80 (mouse) = biological target: T1, V2-Trap-80 (mouse) (UniProt Q8VCD5); experiment: as above
T1 sequence: B4 chain

HA-Trap-80 (mouse) = biological target: T2, HA-Trap-80 (mouse) (UniProt Q8VCD5); experiment: co-IP; HEK-293 co-transfected with p65 and HA-Trap-80; nuclear extracts after TNF-α; IP with anti-HA or anti-p65, western blot; salt diluted to 100 mM, washed in L1 + 150 mM KCl
T2 sequence: B4 chain

[1] = biological target: T3, Gal4 DNA-binding domain fused to Trap-80 NT (aa 1–335) (mouse) (UniProt Q8VCD5); experiment: two-hybrid; same hybrids; growth on medium lacking histidine (25 mM 3-amino triazole by the methods); not shown
T3 sequence: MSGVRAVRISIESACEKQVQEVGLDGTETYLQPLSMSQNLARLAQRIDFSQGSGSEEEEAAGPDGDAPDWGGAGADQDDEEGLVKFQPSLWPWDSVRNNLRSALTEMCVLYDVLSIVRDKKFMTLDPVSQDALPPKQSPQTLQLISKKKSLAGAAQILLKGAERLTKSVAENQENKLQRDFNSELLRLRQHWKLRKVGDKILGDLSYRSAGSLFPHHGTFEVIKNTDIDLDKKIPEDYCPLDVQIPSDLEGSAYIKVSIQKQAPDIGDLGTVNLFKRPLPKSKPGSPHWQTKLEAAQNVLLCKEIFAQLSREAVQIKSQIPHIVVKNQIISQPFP

[2] = biological target: T4, Gal4 DNA-binding domain fused to full-length Trap-80 (mouse) (UniProt Q8VCD5); experiment: as above
T4 sequence: B4 chain

[3] = biological target: T3, Gal4 DNA-binding domain fused to Trap-80 NT (aa 1–335) (mouse); experiment: two-hybrid; Y153 yeast; Gal4 activation domain-p65 fragments (pAct2) with Gal4 DNA-binding domain-Trap-80 (pGBT9); LacZ read by colony lift on nitrocellulose, lysis, X-Gal at 37 °C
[4] = biological target: T4, Gal4 DNA-binding domain fused to full-length Trap-80 (mouse); experiment: as above
p65-V2 (mouse), Q04207 = biological target: T5, p65-V2 (mouse), Q04207; experiment: split reporter; BiFC with Venus fragments V1 and V2 in co-transfected HEK-293 cells; fluorescence intensity by flow cytometry, as percent of p65-V1 with V2-Trap-80; details: remark: other sources report otherwise
T5 chain: B2 chain

[5] = biological target: full-length mouse p65 (pCDNA3) (mouse) (UniProt Q04207); experiment: co-IP; HEK-293 co-transfected with p65 and HA-Trap-80; nuclear extracts after TNF-α; IP with anti-HA or anti-p65, western blot; salt diluted to 100 mM, washed in L1 + 150 mM KCl

Molecule	binding (p65-V2 (mouse))	binding (V2-Trap-80 (mouse))	further results
p65ΔTA1 fused to Venus fragment 1 (from UniProt Q04207 1-519) (domain or fragment)	binds	binds	–
p65ΔTA1&2 fused to Venus fragment 1 (from UniProt Q04207 1-519) (domain or fragment)	binds	no binding	–
p65DBD-V1 (from UniProt Q04207 1-305) (domain or fragment)	binds	no binding	–
full-length mouse p65 (pCDNA3) (from UniProt Q04207 1-549)	–	–	binding (HA-Trap-80 (mouse)): binds
p65ΔTA2 fused to Venus fragment 1 (from UniProt Q04207 1-549)	binds	binds	–
p65ΔTA2 TA1 DF539AA fused to Venus fragment 1 (from UniProt Q04207 1-549)	–	no binding	–
p65-V1 (from UniProt Q04207 1-549)	–	binds	–
B1	–	–	binding [1]: binds; binding [2]: binds; binding [3]: binds; binding [4]: binds
B2	–	–	binding (p65-V2 (mouse), Q04207): binds
B3	–	–	binding [1]: binds; binding [2]: binds; binding [3]: binds
B4	–	–	binding [5]: binds
